{
  "source": "PubChem BioAssay AID651820",
  "about": "(National Center for Advancing Translational Sciences (NCATS), 2012)",
  "note": "In all, about 340,000 compounds went through this assay and about 12,000 (3.5%) were called active. Inconclusive results, whose numbers are uncertain, are shown with a selection of clear calls. The call rests on the fitted dose curve; in most records, active means well fitted inhibition curve with a large enough effect; inconclusive means small, poorly fitted or top-dose-only effect, or another doubt; inactive means no such curve, though single readings can be large or run the other way. No potency is given beside an inconclusive call; the fits are too rough. On the % scale 0 is the no-effect control and ±100 the full control effect; potency means the concentration at half of the fitted maximal effect; tags describe the fitted curve by direction and shape.",
  "data": [
    {"experiment": "qHTS Assay for Inhibitors of Hepatitis C Virus (HCV)", "settings": "Huh7.5.1 HCVcc-Cre (HCVcc is cell-culture hepatitis C virus) infection, luciferase reporter, 44 h; activity change, negative = inhibition: at 41.8 µM (top of the series)", "in_short": "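Infectious HCV cell culture screen: compound-treated cells (1,000/well, pre-plated 4 h) are infected with HCVcc-Cre at roughly 0.5 moi and grown 44 h. Infection is quantified by luciferase signal after 15 min substrate incubation at room temperature.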", "values": [
      {"smiles": "COc1ccc(NC(=S)NCCc2ccc(F)cc2)c(OC)c1", "activity change, negative = inhibition": "inactive: -14.1%"},
      {"smiles": "COC(=O)C1=C(C)N=C2SC(C#N)=C(N)N2C1c1ccc(OC)cc1", "note": "(stereo not drawn)", "activity change, negative = inhibition": "inactive: 19.1%"},
      {"smiles": "COC(=O)c1c(C(=O)OC)c(-c2ccc(F)cc2)n2c1CSC2", "Potency": "inconclusive [inhibitor, partial curve]"},
      {"smiles": "Cc1c(C(=O)Nc2nc3ccccc3[nH]2)oc2ccccc12", "Potency": "inconclusive [inhibitor, partial curve]"},
      {"smiles": "COc1ccc(-c2nc(CN3CCCCC3c3nccn3C)c(C)o2)c(C)c1C", "note": "(stereo not drawn)", "Potency": "inconclusive [inhibitor, single point]"},
      {"smiles": "Brc1ccc(Nc2c3c(nc4ncnn24)CCC3)cc1", "Potency": "inconclusive [inhibitor, partial curve, poor fit]"},
      {"smiles": "COCCCNC(=O)C[C@H]1C[C@H](C(=O)N(C(C)C)C(C)C)[C@@]2(C)c3[nH]c4cc(CCC(=O)N(C)C)ccc4c3CCN2C1=O", "Potency": "inconclusive [inhibitor, single point]"},
      {"smiles": "COC(=O)CNc1nc(-c2cccnc2)nc2ccccc12", "Potency": "inconclusive [inhibitor, partial curve]"},
      {"smiles": "CCOc1ccc(NCc2nnc(SCC(=O)Nc3nc(-c4ccccc4)cs3)n2-c2ccccc2)cc1", "activity change, negative = inhibition": "inactive: 7.34%"},
      {"smiles": "Cc1ccc(-c2noc(CN(C(=O)CCCCCN3C(=O)c4ccccc4C3=O)C(C)C)n2)cc1", "Potency": "inconclusive [inhibitor, single point]"},
      {"smiles": "O=C(Nc1cccc2ccccc12)c1ccc([N+](=O)[O-])s1", "Potency": "inconclusive [inhibitor, single point]"},
      {"smiles": "O=C(Nn1cnnc1)C1Cc2ccccc2CN1S(=O)(=O)c1ccc(F)cc1", "note": "(stereo not drawn)", "activity change, negative = inhibition": "inactive: -5.39%"},
      {"smiles": "COc1ccc(C(C(=O)NCC2CCCO2)N(C(=O)c2snc(C(N)=O)c2N)c2ccccc2)cc1OC", "note": "(stereo not drawn)", "activity change, negative = inhibition": "inactive: -16%"},
      {"smiles": "COc1cccc(OC)c1C1=CC(=O)C[C@H](c2ccc3c(c2)OCO3)C1", "Potency": "inconclusive [inhibitor, single point]"},
      {"smiles": "CCCCn1c(CCC(=O)O)nc2cc(S(=O)(=O)N(CC)CC)ccc21", "Potency": "inconclusive [inhibitor, single point]"},
      {"smiles": "COc1ccc2cc(CN(C(=O)Nc3ccccc3OC)C3CCCC3)c(=O)[nH]c2c1", "Potency": "inconclusive [inhibitor, partial curve]"},
      {"smiles": "O=C(Nc1ccc(N2CCN(C(=O)c3ccccc3F)CC2)cc1)c1cncc(Br)c1", "Potency": "inconclusive [inhibitor, single point]"},
      {"smiles": "CCOC(=O)c1[nH]c2c(OCC)nc(OCC)nc2c1Br", "Potency": "inconclusive [inhibitor, full curve, poor fit]"}
    ]}
  ]
}
